Where “and” joins values, the source holds several entries; their conditions need not be identical. Identical values can stand only once.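 In this assay, cells in 96-well plates receive the compound at five concentrations for 48 hours. Endpoints are linearly interpolated between the surrounding concentrations. Here, GI50 denotes the concentration required for 50% inhibition of growth. TGI: total growth inhibition.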 Square brackets hold non-standard residues; d marks the D form. Peptide text beside a SMILES is read from it. * marks the point of attachment. ξ: configuration not given here. NMeF = CN[C@@H](Cc1ccccc1)C(=O)O; NMeN = CN[C@@H](CC(N)=O)C(=O)O; NMeV = CN[C@H](C(=O)O)C(C)C; ξNMeV = CNC(C(=O)O)C(C)C; Boc = CC(C)(C)OC(=O)*; ξNMeA = CNC(C)C(=O)O; ξV = CC(C)C(N)C(=O)O

The assay has as its system NCI-H322M lung. In words: inhibition of tumour cell growth, NCI panel, 48 h.
For `c1ccc(-c2cccc(-c3ccccn3)n2)nc1`, the GI50 was 66.8 nM; the TGI was 1.98 µM and 8.73 µM.

Turning to `Cc1n(Cc2ccc3ccccc3c2)c2ccccc2[n+]1Cc1ccc2ccccc2c1`, the GI50 is 1560 nM and the TGI is 3 µM.

Consider `CCN1CCN(Cc2ccc(NC(=O)c3nc4ccc5[nH]ncc5c4c4c3CCCC4)cc2C(F)(F)F)CC1`, for which the GI50 was 1370 nM and the TGI stood at 4.42 µM.

For the compound `COc1ccc(-n2cnc3c(NCC(=O)O)ncnc32)cc1`, the TGI is > 100 µM.

On to `CS(=O)(=O)c1ccc(NNc2cc(=O)[nH]c(=O)[nH]2)cc1`, for which the TGI was > 100 µM.

As for `COc1ccc2nc3n(c2c1)C(c1c(F)cccc1Cl)SC3` (stereo unspecified), the TGI was > 100 µM.

Turning to `CCN(CC)CCN1CCc2c([nH]c3ccccc23)C1c1cccnc1` (stereo unspecified), the TGI was > 100 µM.

In turn, `Cc1ccc(S(=O)(=O)/N=C(\NO)Nc2ccc(Cl)c(Cl)c2)cc1` showed a TGI of 5.08 µM.

As to `O=C(O)C1(Cc2ccccc2)Cc2ccccc2C1`, the TGI is > 100 µM.

As for `C/C(=C\COc1ccc2ccc(=O)oc2c1)C1=CC(=O)C(C)(C)O1`, the GI50 was 4410 nM; the TGI was 15.1 µM and 7.81 µM.

As for `COc1ccc(O)c2c(=O)ccccc12`, the TGI was > 100 µM.

In the case of `C=C[C@]1(C)C[C@@H](OC(=O)CO)[C@@]2(C)[C@H](C)CC[C@]3(CCC(=O)[C@H]32)[C@@H](C)[C@@H]1O`, the TGI is > 100 µM.

For `O=[N+]([O-])c1ccc2c3c1[C@H]1O[C@H]1c1cccc(c1-3)[C@@H]1O[C@H]21`, the TGI was determined as 15.2 µM.

As to `CCC1(CN(C)C)CC/C(=C\c2ccc(OC)cc2)C1=O` (stereo unspecified), the TGI is > 100 µM.

The compound `O=C(Nc1ccc(Cl)cc1)/C(=C(/[O-])c1ccc(Br)cc1)[n+]1cccc(-c2ccc(Cl)cc2)n1` displayed a TGI of 17.7 µM.

As for `COc1cc(Nc2cnc3ccc(N)cc3n2)cc(OC)c1OC`, the TGI was > 100 µM.

With `Cc1ccc(-c2cc(=S)n(-c3ccccc3)c3nc(=S)n(-c4ccccc4)c(N)c23)cc1`, the TGI is > 100 µM.

As for `C/C(=C\C(=N\N=C(N)N)c1ccc(Cl)cc1)c1ccc(Cl)cc1`, the GI50 was 1390 nM and the TGI was 2.75 µM.

With `CN1CCN(Cc2ccc(NC(=O)c3cncc(C#Cc4cnc5ccc(Cl)nn45)c3)cc2C(F)(F)F)CC1`, the GI50 is 1270 nM and the TGI stood at 3.23 µM.

`O=C1CCC[C@]2(CCCC(=O)N2)C1`: the TGI was > 100 µM.

As for `C=C1C(C(O)C[C@H](C)C2O[C@@]3(CCCCO3)CCC2C)O[C@@H]2CCC3(CCC(/C=C/[C@@H](C)C4CC(C)=CC5(O4)O[C@H](C[C@](C)(O)C(=O)O)CCC5O)O3)OC2[C@@H]1O` (stereo partly specified), the GI50 was 15.2 nM and the TGI turned out to be 0.0133 µM.

Take `N=C(N)CCNC(=O)C1CCC(N)=N1` (stereo unspecified): the TGI is > 95.4 µM.

Regarding `CN(C)C(=S)/N=c1\ss/c(=N\C(=S)N(C)C)n1C1CCCCC1`, the TGI is > 100 µM.

Consider `COC(=O)C1C(O)C(C)C(O)C(C)(O)/C=C/C=C(C)C(=O)Nc2c(C)c(OC(C)=O)c3c(c2O)C(=O)C(C)=C2OCOC(=C23)C(C)=CC(C)(O)C(O)C(C)C1OC(C)=O` (stereo unspecified), for which the GI50 is 23100 nM and the TGI stood at 39.8 µM.

With `Nc1ncnc2c1ncn2C1OC(CO)C2OC21` (stereo unspecified), the TGI was > 100 µM.

As to `COC1OC(Cn2c(C)nc(Br)c2Br)C(O)C(O)C1O` (stereo unspecified), the TGI is > 100 µM.

With `CCCC12Cc3c(OC)ccc(OC)c3CC(Cc3c(OC)ccc(OC)c31)C2=O` (stereo unspecified), the TGI is > 100 µM.

Consider `CC(C)CNC(=O)c1ccc(NC(=O)N(CC(C)C)C(=O)c2ccc(N)c(OCCCN)c2)c(OCCCN=C(N)N)c1`, for which the GI50 is > 62500 nM and the TGI is > 62.5 µM.

With `N=C(N)c1ccc(-c2ccc(-c3ccc(F)cc3)s2)nc1`, the GI50 was 1640 nM and the TGI is 3.1 µM.

On to `COc1ccc(OC)c(CCc2cc(OC)ccc2OC)c1`, for which the TGI is > 10 µM.

Regarding `O=C(/C=C/c1ccccc1O)c1cccs1`, the TGI is > 100 µM.

For the compound `COC(=O)C(C)N(C)C(=O)[C@H](CC(N)=O)N(C)C(=O)[C@@H]1CCCN1C(=O)[C@H](C(C)C)N(C)C(=O)C(C(C)C)N(C)C(=O)[C@H](Cc1ccccc1)N(C)C(=O)C(NC(=O)OC(C)(C)C)C(C)C` (stereo partly specified) (Boc-[ξV][NMeF][ξNMeV][NMeV]P[NMeN][ξNMeA]-OMe), the GI50 was 17500 nM; the TGI is 50 µM and 31.2 µM.

As to `C[C@@]1(O)C2C3CC4C5C3C1[C@](O)(C42)[C@H]5Br` (stereo partly specified), the TGI was > 100 µM.

For the compound `NC(=O)c1cc(Cl)ccc1NC(=O)COc1ccccc1`, the GI50 is 7090 nM and the TGI was > 100 µM.

For the compound `CNCCC/C=C1\c2cc3c(cc2-c2c1c1cc(OC)c(OC)cc1c(=O)n2C)OCO3`, the GI50 is 2690 nM and the TGI was determined as 18.9 µM.

For the compound `COC(=O)C1(C(=O)OC)N=C(C)OC1c1ccoc1` (stereo unspecified), the TGI is > 100 µM.

As for `c1ccc(-c2nc([P+](c3ccccc3)(c3ccccc3)c3ccccc3)c(N3CCOCC3)o2)cc1`, the GI50 was 3180 nM and the TGI stood at 15.9 µM.

In the case of `COc1ccc(N2CCOCC2)cc1`, the TGI is > 100 µM.

With `COc1cc(/C=C\c2cc(/C=C\c3ccc(O)c(OC)c3)n(C(=O)COc3ccccc3)n2)ccc1O`, the GI50 is 1780 nM and the TGI was 10.3 µM.

`CC(=O)OCC1OC(n2c(-c3ccc(Cl)cc3)cc(-c3ccccc3)c(C#N)c2=S)C(OC(C)=O)C(OC(C)=O)C1OC(C)=O` (stereo unspecified) showed a TGI of 33.9 µM.

For the compound `Clc1ccc(Cc2nc3cc(Cl)ccc3o2)cc1`, the TGI is > 100 µM.

On to `O=C1CCN(CCC(F)(F)C(F)(F)C(F)(F)C(F)(F)C(F)(F)C(F)(F)F)C(=S)N1CCC(F)(F)C(F)(F)C(F)(F)C(F)(F)C(F)(F)C(F)(F)F`, for which the TGI is > 100 µM.

With `CCOC(=O)C#Cc1c(C(=O)OCC)nnn1Cc1ccc(C(F)(F)F)cc1`, the GI50 was 16000 nM and the TGI is 30.6 µM.

Take `CN(C)c1ccc(N=Nc2ccc(Br)cn2)c(O)c1`: the GI50 was 497 nM and the TGI is > 100 µM.

Regarding `COc1ccc2cc(C(=O)NCCCNC(=O)c3ccc4c(OC)c(OC)ccc4c3)ccc2c1OC`, the TGI is > 100 µM.

As for `COc1cccc(-n2ncc3c(N/N=C/c4cccc(F)c4)ncnc32)c1`, the GI50 is 15000 nM and the TGI is > 25 µM.

As to `CC(=O)O[C@H](C[C@@H](C)[C@H]1C(=O)[C@H](O)[C@@]2(C)C3CC[C@H]4C(C)(C)[C@@H](OC5OCC(O)C(O)C5O)CC[C@@]45C[C@@]35CC[C@]12C)[C@@H]1OC1(C)C` (stereo partly specified), the TGI came out at 47.8 µM.

Turning to `Nc1nnnn1NC(=O)NCCCl`, the TGI was > 10 µM.

In turn, `[O-][n+]1c2cc(CBr)c(CBr)cc2[n+]([O-])c2c(O)cccc21` came in with a TGI of 24.2 µM.

Take `CCCCCCCCCCCCCCCC[N+](C)(C)Cc1ccc(F)cc1`: the TGI was 37 µM.

For `C/C(=N\NC(=O)c1ccccc1N)c1ccccc1O`, the GI50 is 2350 nM and the TGI was > 100 µM.

Take `Cc1cccc(-c2cc(=O)c3cc(C)c(C)c(C(=O)O)c3o2)c1`: the TGI was > 100 µM.

`Nc1nc2c(ncn2C2C=CC(COS(N)(=O)=O)C2)c(=O)[nH]1` (stereo unspecified): the TGI was > 100 µM.

For `O=C1C=C2C(=CCOC2O)O1` (stereo unspecified), the GI50 is 5900 nM and 17400 nM; the TGI is 15.1 µM and 38.2 µM.

Consider `CC1(C)CC(/C=C2/OC(=O)c3ccccc32)=C(C(N)=O)C(=O)O1`, for which the TGI was > 100 µM.

Consider `CC(=O)O[C@H]1C(=O)[C@@]2(C)[C@H]([C@H](OC(=O)C3CCCCC3)[C@]3(O)C[C@H](OC(=O)[C@H](O)[C@@H](NC(=O)OC(C)(C)C)c4ccccc4)C(C)=C1C3(C)C)[C@]1(OC(C)=O)CO[C@@H]1C[C@@H]2O`, for which the TGI was > 12.5 µM.

For the compound `O=C(O)c1ccccc1/C=C1\Cc2ccccc2C1=O`, the TGI is > 100 µM.

`CS(=O)(=O)OCCn1c2c(c3c(O)cccc31)C(=O)c1ccccc1-2`: the GI50 was > 100000 nM and the TGI is > 100 µM.

`CCC(C)C1=NC(C(=O)N/C=C\c2c[nH]c3cc(Br)c(Br)cc23)(C(C)C)NC1=O` (stereo unspecified): the GI50 was 18500 nM and the TGI was determined as 35.9 µM.

The compound `CCCCC(=O)Nc1ccc2cc(C(=O)OC)c(Cl)nc2n1` showed a TGI of 18 µM.

Turning to `CCCCc1ccc(N2C(=O)c3cc([N+](=O)[O-])cnc3S2(=O)=O)cc1`, the TGI is > 100 µM.

On to `CCOP(=O)(OCC)/C(C#N)=C/c1nccn1C`, for which the TGI is > 100 µM.

On to `N#CC(C#N)=C1/C(=C/C=C/C=C/C=C/c2ccc(N3CCCCC3)s2)S(=O)(=O)c2ccccc21`, for which the TGI is > 100 µM.

For `CO[C@H]1C[C@@H]2CC[C@@H](C)[C@@](O)(O2)C(=O)C(=O)N2CCCC[C@H]2C(=O)O[C@H]([C@H](C)C[C@@H]2CC[C@@H](O)[C@H](OC)C2)CC(=O)[C@H](C)C=C(C)[C@@H](O)[C@@H](OC)C(=O)[C@H](C)C[C@H](C)/C=C/C=C/C=C1C`, the TGI was 24.2 µM and 28.4 µM and 225 µM.

Turning to `CC(=O)OCC12C(OC(C)=O)C(=O)C3C(OC(C)=O)C14OC3(C)COC(=O)c1cccnc1C(C)C(C)C(=O)OC(C(OC(C)=O)C2OC(C)=O)C4(C)O` (stereo unspecified), the TGI is > 100 µM.

Compound `Cc1nc(Nc2ccc(Cl)cc2)sc1C(=O)NNC(=O)C(=O)NN` had a TGI of 92.8 µM.

`C/C=C/CC(S(=O)(=O)c1ccccc1)S(=O)(=O)c1ccccc1`: the TGI is > 100 µM.

For the compound `COc1nc2ncc([C@@H](O)[C@H](O)CO)nc2c(=O)n1C`, the TGI is > 100 µM.

On to `c1ccc([P+](c2ccccc2)(c2ccccc2)c2ccc([P+](c3ccccc3)(c3ccccc3)c3ccccc3)c3ccccc23)cc1`, for which the TGI was > 100 µM.

Regarding `COc1ccc(CCCNC(=O)Cc2ccccc2CO)cc1OC`, the TGI is > 100 µM.

With `CN1C(=O)C23CC4(C56CC78SSC(CO)(C(=O)N7C5Nc5ccccc56)N(C)C8=O)c5ccccc5NC4N2C(=O)C1(CO)SS3` (stereo unspecified), the GI50 is 136 nM and the TGI was determined as 0.43 µM.

As for `[O-][n+]1c2cc3c(cc2[n+]([O-])c2c(O)cccc21)CN(CCN1CCOCC1)C3`, the TGI was > 100 µM.

For the compound `COc1ccc(-c2cn(-c3cccc(C(=O)/C=C/c4cc(OC)c(OC)c(OC)c4)c3)c(=O)[nH]2)cc1`, the GI50 was 2660 nM and the TGI came to 13.6 µM.

With `CC(CO)(CO)N1C(=O)C2C3c4ccccc4C(c4ccccc43)C2C1=O` (stereo unspecified), the TGI is > 100 µM.

On to `O=C1CC2C=CC1C2CO` (stereo unspecified), for which the TGI is > 100 µM.

Consider `C/C1=C\CC[C@@]2(C)O[C@@H]2C[C@@H]2[C@H](C/C(C)=C/CC1)OC(=O)C21CC1`, for which the TGI is > 100 µM.

Turning to `Cc1cc(NS(=O)(=O)c2ccc(NC(=O)c3ccc(Cl)c4c(Nc5ccc(S(N)(=O)=O)cc5)c5ccccc5nc34)cc2)no1`, the TGI worked out at 37.8 µM.
